# Reference: PMC10726135
# This is one part of the list. At the low end of the ranking the order means little. The protein was read in a cell extract, so binding may be indirect.
# Molecular target: T1, HNF4alpha2 (COS-7 nuclear extract) (UniProt P41235)
# T1 sequence: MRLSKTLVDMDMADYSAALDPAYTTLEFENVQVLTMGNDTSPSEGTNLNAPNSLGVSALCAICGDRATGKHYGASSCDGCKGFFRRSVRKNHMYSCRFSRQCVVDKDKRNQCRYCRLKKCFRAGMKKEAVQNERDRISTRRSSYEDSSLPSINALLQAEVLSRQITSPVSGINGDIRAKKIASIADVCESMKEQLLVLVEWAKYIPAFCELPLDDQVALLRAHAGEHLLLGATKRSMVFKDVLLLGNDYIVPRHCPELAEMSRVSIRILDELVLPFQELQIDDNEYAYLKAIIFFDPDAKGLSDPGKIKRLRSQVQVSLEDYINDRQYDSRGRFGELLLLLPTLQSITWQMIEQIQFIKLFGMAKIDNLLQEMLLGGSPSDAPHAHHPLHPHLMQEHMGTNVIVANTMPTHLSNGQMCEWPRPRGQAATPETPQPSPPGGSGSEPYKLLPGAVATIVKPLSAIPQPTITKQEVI
# Assay: protein-binding microarray
# Conditions: COS-7 nuclear extract on double-stranded Agilent 4x180k PBM; binding buffer, salt, pH and temperature not given; high values mean tight binding; double strand, one strand shown; sequences stand for … in …GCCTAGGGAGATTAGAGTATCGGTCGA
row,Sequence,binding signal (log2 normalized intensity)
1,AGATGAGCTCTGAACTAACAATTCTTTCTG,-1.15
2,TGTTTGCATAAAGTTAAACTTTAAATTTGC,-0.247
3,CACCCTCAAATCAGTGAAGGCCTCTGATGA,-0.871
4,AAGGTTCCAGGGAACTGTCCACCAAGGAGG,-1.13
5,TTCTACTCTCCCCAGTTCAAAGGTTAAGAC,5.21
6,AAGTACACACTGTACCCGTCCACCTTTGGA,2.66
7,TCCCCAGATTCCAGGGGAGGGTAAGAGTCC,1.88
8,CTGAGAGACTTTATCCGTATAACAAGACAG,0.0517
9,CCTTTTTCTGTTCAATGGTGCTTTTGATAT,2.21
10,TCCCAAGTAGCTCATTTATTATTTGTCTGG,1.71
11,GTGCCATGCCAAAGAAGCAAAGGTTGGCTA,-0.695
12,GAAAGAGGGTGAAAGTACAGTGATGTTTGT,2.1
13,GACATAAATCACATTGTTAGCATAGCCTAT,-0.761
14,GCTCAGTAAATTATCTTGATGGTTAAAGTC,0.851
15,GCCAATTAGAAGGCTCCCTGCTGCGGAGAG,-1.05
16,ACACACCGTTAGCCAATATTTGCAAGGCTG,-1.38
17,GATCATAAATGCCTCCCCCTCTTTATCTCC,3.3
18,CCTGAAATTGAGATGAGATGGTCAAAGGTT,4.55
19,TTAAGACTCAAAGTTCAGTCGAATTTGGTT,1.57
20,GGTGAACTTTGAGACTATCCTTGGACCGCA,2.51
21,CTCTGGGGGAACCTCTGGTCAAATTCCAAC,2.32
22,TGAAAAGATAGCTTGAGGCCAGCTCATAGG,-1.3
23,CACATTCGAAGTTTTGCTCCTTTGAGCACT,1.16
24,CTTTGCCCTTTGGGAAGGGGCAAAAGAGAG,2.43
25,GGACAAAGTTCCCCGGGCAGCTGTGTTTGC,0.389

row,Sequence,binding signal (log2 normalized intensity)
1,CTGTCTGCTGAGGATGTGGCCCCGAGATAA,2.06
2,TGTGGAATGGCAACATGTGGGCAAATAGGA,0.477
3,TTTTGATTGCTTAGGCTCTTGTTATGAAAC,0.658
4,GCATGCCCCGCGCCGCGTCCCTTCCCCCGG,3.82
5,CAGTATCAAAGTCCCCAGATAAGACAAAGT,1.92
6,CCCAAGATGGATTGGGTCCACACATTCCTA,-0.811
7,TCTGATTGGTTGGAGAAAGCAGCCAACCAG,-1.09
8,GAGAAGACATAGTTTTTGCCCTTAAGCAGC,1.55
9,TCAGCCCACTTCCTACCATCAAAGGTTGTC,1.07
10,CAGTAACCTAAGTCAGGAAACTGACTCAAC,-1.14
11,CTTTTGGAATCCCCATCTCACCATAAACTC,1.88
12,CAAAGATTGTGAGACAAGAGAAGAGAAAAA,-1.11
13,GGGGCCCAGGTCGAAGTTTATGTTTACTGT,1.36
14,GGCCCAGAGCACAACCTTTGGCCGTGCATG,2.45
15,ATCCTCAGGGTTCATAGATGATAGTGATAA,0.98
16,CGCATGCATAACCAAACAGAGAGAAAGCAG,-1.03
17,TACCTGTTTGCAAGCCCAAAGCCCCCAGAG,3.35
18,GGCTTTTGCAGTCACTCTCTAGAATGAGCC,-0.602
19,CAGGATTCTTGCTACAACTGGACTAGACAG,-1.07
20,TGACCTGCAATGAAAGTCCACTTGTCTGGC,1.95
21,TTGCCCACCCCCCAAGTAGAGAGCAATTAT,3.78
22,GAACCCAGACTGCATTTTCATCTTGCCTTT,0.316
23,AGTATTCATTCCCCTAGTATATTGGCTTGG,1.54
24,TGTGCTATTTTTGGCTTGGTTCCACATCAG,1.75
25,TAGAAGAAAGCTTCATAGTGGTTTGACTTT,1.17

row,Sequence,binding signal (log2 normalized intensity)
1,TACAAAACCCCTTATCAGGTAGAACATTGC,0.869
2,TTAGAGGCTCAGGTAAAGGCATGCTTGGCA,-1.16
3,CTGGGAAGGCTCGTTCTCGCGAGAGTTCAG,0.48
4,ACGTCATTTTGTCACCTACATGTGAGAGAG,0.937
5,GCAAACTCTAGCTGTCCTCCTCTGAAGGAA,-1.2
6,GTTCACAATAAGAGGGTATACTATTTGCTA,-1.1
7,CCAGCTAAAACTGCAGATTGACTCAGGCAT,-1.19
8,AGCATGTTTGGTGACCCGTGACCCTCAGGA,3.04
9,CCTAAGCCCTGCTCAGGGAATGTGGGTCCA,2.18
10,AAGCCTTTCTGAGGAGCTAACAGTAAAACT,-1.17
11,CTGCCAAAGGTAAAAAATGCAAGTTTATCG,-1.12
12,TTGAAGCTCTGGTTCAAACAAGGCCAAAGT,1.72
13,GTAAGCACAAAGTACAGCTTTTTGTTTGTG,1.95
14,GATGGGCAACTGTCCGAGTTGTCAAAAGGG,-1.16
15,AGTTACGTAATGTGTCCCCACATCTGTGAA,1.7
16,GGGACCTGAGAACATGTAATCATTTGGGAC,-0.802
17,CTTCTCATCTTTATCATGTGGTATTAACAT,2.39
18,CACTAAAGTTACAAGATCTTTGGACTATTG,3.79
19,CCGGCAGCAGCCTTGCCTTTGATGTGTCCA,0.415
20,GTGCTAGAGAAAGGACCAGTTGAGTGCAAA,0.18
21,GTTTACATTCCAGGGTGAAATTCAACAGAA,-1.08
22,CACCCCACCCCCTATCTTGTGTAATAACGA,3.15
23,TGCAGTACTATGCAATAACCAGGGAGTGGC,-1.15
